Results reported in PubChem BioAssay AID1768 (National Center for Advancing Translational Sciences (NCATS), 2009).
Screen size: about 270,000 compounds; about 620 (0.23%) were called active. This list was built around the results that the source calls inconclusive (neither active nor inactive); the mix of calls is not that of the screen. Calls come from the whole dose curve; as a rule, active = well fitted inhibition curve with a large enough effect in the polarisation, with a control signal flat (not every such curve was filed as active); inconclusive = small, poorly fitted or top-dose-only effect, or effect the other way, or a change in a side signal; inactive = no such curve, though single readings can be large or run the other way; the % refers to the polarisation. Where the call is inconclusive, the potency comes from a doubtful curve fit. “Side channel” marks fits to a control or component signal instead of the main read-out.
Potency is the fitted concentration of half-maximal effect; tags give direction and shape of the fitted curve or compound fluorescence and quenching.

Each molecule was assayed against Menin (Homo sapiens) (UniProt O00255) (assay: qHTS Assay for Inhibitors Targeting the Menin-MLL Interaction in MLL Related Leukemias: Competition With Texas Red Labeled MLL-derived Mutant Peptide). Details: fluorescence polarization; series mostly up to 61.6 µM.
UniProt O00255, sequence (O00255 whole entry, looked up): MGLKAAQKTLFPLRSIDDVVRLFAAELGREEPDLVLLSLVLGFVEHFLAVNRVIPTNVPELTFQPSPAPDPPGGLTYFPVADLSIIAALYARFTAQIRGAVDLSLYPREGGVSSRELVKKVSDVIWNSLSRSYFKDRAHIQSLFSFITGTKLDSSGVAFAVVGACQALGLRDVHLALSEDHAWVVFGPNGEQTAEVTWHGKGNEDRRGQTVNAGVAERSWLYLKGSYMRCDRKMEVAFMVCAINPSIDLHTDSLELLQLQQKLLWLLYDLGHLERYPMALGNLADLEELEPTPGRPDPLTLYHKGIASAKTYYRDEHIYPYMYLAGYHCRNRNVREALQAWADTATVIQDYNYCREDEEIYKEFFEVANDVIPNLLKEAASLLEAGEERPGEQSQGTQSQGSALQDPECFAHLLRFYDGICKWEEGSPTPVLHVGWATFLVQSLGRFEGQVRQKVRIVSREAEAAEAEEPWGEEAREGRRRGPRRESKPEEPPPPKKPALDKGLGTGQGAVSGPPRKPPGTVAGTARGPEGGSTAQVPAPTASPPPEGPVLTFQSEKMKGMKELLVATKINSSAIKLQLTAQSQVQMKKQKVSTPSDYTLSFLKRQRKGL
With `O=C(Nc1nc(-c2ccccn2)cs1)c1ccco1` the Potency was inconclusive: 39.8 µM [quencher, side channel, single point]. In the case of `COc1ccc(NC(=S)NC(=O)c2ccc(Br)o2)cc1`, the Potency was inconclusive: 39.8 µM [inhibitor, single point]. In the case of `O=C(/C=C/Nc1cccc(C(F)(F)F)c1)c1ccc(Oc2ncccn2)cc1`, the Potency was inconclusive: 35.5 µM [inhibitor, single point]. With `O=C1CCCC2=C1C(c1cn(-c3ccccc3)nc1-c1cccs1)c1c([nH]c(=O)[nH]c1=O)N2` (centres undefined) the Potency was inconclusive: 39.8 µM [quencher, side channel, single point]. With `Cc1ccc(S(=O)(=O)NCCNc2ccc([N+](=O)[O-])cc2C(F)(F)F)cc1` the Potency was inconclusive: 31.6 µM [quencher, side channel, single point]. With `FC(F)(F)c1cc(NC(=S)Nc2ccc3ccccc3c2)cc(C(F)(F)F)c1` the Potency was “inactive”. With `C#CCOCCOCCOCCNc1nc(N2CCN(C(=O)[C@H](CCCCN)n3cc([C@@H](N)C(C)CC)nn3)CC2)nc(N2CCN(C(=O)[C@H](CCCCN)n3cc([C@@H](N)CO)nn3)CC2)n1` (some centres undefined) the Potency was “inactive”. With `O=C(COc1ccc2c(c1)C(=O)CC1(CCCCC1)O2)NCc1ccccn1` the Potency was “inactive”. With `CCc1nnc(NC(=O)CN2CCN(c3ccccc3OC)CC2)s1` the Potency was inconclusive: 3.55 µM [inhibitor, single point]. With `COc1nccnc1NS(=O)(=O)c1ccc(N)cc1` the Potency was inconclusive: 39.8 µM [inhibitor, single point]. In the case of `Clc1ccc(-c2ccnc(Oc3ccc4ccccc4c3)n2)cc1`, the Potency was inconclusive: 39.8 µM [fluorescent, single point]. In the case of `CC(C)(C)NC(=O)C(c1cccnc1)N(C(=O)c1ccc(Cl)nc1)C1CCCC1` (centres undefined), the Potency was inconclusive: 28.2 µM [quencher, side channel, partial curve]. `C=CCN=c1scc(C)n1/N=C/c1ccc(O)c(O)c1` was tested, and the Potency was inconclusive: 8.91 µM [quencher, side channel, partial curve]. `S=C(Nc1ccc2nsnc2c1)N1CCCC1` was tested, and the Potency was inconclusive: 22.4 µM [quencher, side channel, partial curve]. `COc1ccc(NS(=O)(=O)c2ccc(Cl)c(N)c2)cc1Br` was tested, and the Potency was inconclusive: 14.1 µM [quencher, side channel, partial curve]. With `O=[N+]([O-])c1ccc(COc2cccc(CNc3ccc(F)cc3)c2)cc1` the Potency was inconclusive: 12.6 µM [quencher, side channel, partial curve]. For `Cc1ccc2c(c1)N(CC(=O)NC1CCCCCC1)C(=O)c1cccnc1O2`, the Potency was inconclusive: 7.08 µM [fluorescent, side channel, single point]. For `O=C(CN1CCCCCC1)Nc1ccccc1Oc1ccccc1`, the Potency was inconclusive: 1.78 µM [fluorescent, side channel, full curve, poor fit]. In the case of `CC(C)n1cc(/C=C2/NC(=O)NC2=O)c2ccccc21`, the Potency was inconclusive: 28.2 µM [quencher, side channel, partial curve]. In the case of `COc1ccc(NC(=O)c2cc(-c3cc(C)c(C)cc3O)n[nH]2)c(OC)c1`, the Potency was inconclusive: 39.8 µM [inhibitor, single point]. With `COc1ccccc1-c1cc(-c2ccccc2)nc(SC(C(N)=O)c2ccccc2)c1C#N` (centres undefined) the Potency was inconclusive: 31.6 µM [fluorescent, side channel, single point]. In the case of `CC(=O)Nc1ccc(/C=C/c2noc(-c3ccccc3O)n2)cc1`, the Potency was inconclusive: 25.1 µM [inhibitor, single point]. With `COc1cccc(/C=C/C(=O)c2c(O)cc(C)oc2=O)c1O` the Potency was inconclusive: 12.6 µM [quencher, side channel, partial curve]. For `Cc1ccc(S(=O)(=O)NCC(c2ccco2)N2CCOCC2)cc1` (centres undefined), the Potency was “inactive”. With `C1CCc2nnnn2CC1` the Potency was inconclusive: 39.8 µM [inhibitor, single point]. In the case of `O=[N+]([O-])c1cccn2cc(-c3ccc(Br)cc3)nc12`, the Potency was inconclusive: 17.8 µM [quencher, side channel, partial curve]. For `NC(=O)C1(N2CCCCC2)CCN(C(=O)c2ccc(C#Cc3ccccc3)o2)CC1`, the Potency was inconclusive: 11.2 µM [fluorescent, side channel, partial curve]. `COc1cc(C2OC(c3cc(OC)c(OC)c(OC)c3)C(C)C2C)cc(OC)c1OC` (centres undefined) was tested, and the Potency was inconclusive: 14.1 µM [fluorescent, side channel, partial curve]. `CCOc1cc(C2Nc3ccccc3C(=O)N2c2ccccc2)c(Br)cc1OCC(=O)O` (centres undefined) was tested, and the Potency was “inactive”. `O=[N+]([O-])c1ccccc1-c1ccc(C(=S)N2CCCC2)o1` was tested, and the Potency was inconclusive: 35.5 µM [quencher, side channel, single point]. `Cc1nc2ccccc2n1C1CCN(CC(=O)NCc2ccc(F)cc2)CC1` was tested, and the Potency was inconclusive: 3.16 µM [inhibitor, full curve]. With `O=[N+]([O-])c1ccc(/C=N/Nc2nc(N3CCCCC3)nc(N3CCCCC3)n2)cc1` the Potency was inconclusive: 2 µM [quencher, side channel, full curve, poor fit]. For `O=C(N/N=C/c1cccnc1)c1ccc(NC(=O)c2cccc(Cl)c2)cc1`, the Potency was inconclusive: 0.0631 µM [quencher, side channel, full curve]. With `CCN1C(=O)C(CC(=O)Nc2ccc(F)cc2)N(Cc2ccc3c(c2)OCO3)C1=S` (centres undefined) the Potency was inconclusive: 10 µM [quencher, side channel, partial curve]. With `N#Cc1c(SCc2ccccc2)sc(C(=O)c2ccccc2)c1N` the Potency was inconclusive: 39.8 µM [inhibitor, single point]. For `O=C(Nc1ccc(C(=O)O)cc1)/C(=C\c1ccc([N+](=O)[O-])cc1)NC(=O)c1ccc(Br)cc1`, the Potency was inconclusive: 28.2 µM [quencher, side channel, partial curve]. In the case of `COc1ccccc1/C=C/C(=O)c1c2c(c(C)[nH]c1=O)CCCC2`, the Potency was inconclusive: 2.24 µM [inhibitor, full curve]. `O=C(O)c1ccc(NC(=S)NC(=O)c2ccc(-c3ccc(Br)cc3)o2)cc1` was tested, and the Potency was inconclusive: 39.8 µM [fluorescent, single point]. `O=Nc1ccc2oc(=O)ccc2c1` was tested, and the Potency was inconclusive: 3.55 µM [inhibitor, partial curve]. For `O=C1CC[C@H](C(=O)N[C@@H]2C[C@H]2c2ccccc2)N1`, the Potency was “inactive”. In the case of `COc1ccc(-c2cccc(C(=O)N3CCOCC3)c2)cc1`, the Potency was inconclusive: 14.1 µM [inhibitor, partial curve]. For `CC[C@H](C)[C@H](N)C(=O)N[C@H]1CCC(=O)NCC(C(=O)N[C@@H](Cc2ccc(O)cc2)C(=O)N[C@@H](CCCNC(=N)N)C(=O)N[C@@H](CC(C)C)C(=O)N[C@@H](CCCNC(=N)N)C(=O)N[C@@H](Cc2ccc(O)cc2)C(N)=O)NC(=O)[C@@H]2CCCN2C(=O)[C@@H](NC(=O)[C@@H](N)[C@@H](C)CC)CCC(=O)NCC(C(=O)N[C@@H](Cc2ccc(O)cc2)C(=O)N[C@@H](CCCNC(=N)N)C(=O)N[C@@H](CC(C)C)C(=O)N[C@@H](CCCNC(=N)N)C(=O)N[C@@H](Cc2ccc(O)cc2)C(N)=O)NC(=O)[C@@H]2CCCN2C1=O` (some centres undefined), the Potency was inconclusive: 10 µM [inhibitor, partial curve]. For `Cc1ccc(NC(=O)CN2C(=O)S/C(=C\c3cc(C)n(-c4cccc(C(=O)O)c4)c3C)C2=O)cc1`, the Potency was inconclusive: 11.2 µM [quencher, side channel, partial curve]. In the case of `S=C(NCc1ccco1)N1CCN(Cc2ccc(Cl)cc2Cl)CC1`, the Potency was inconclusive: 8.91 µM [quencher, side channel, full curve, poor fit]. In the case of `CN(Cc1ccccc1F)C(=O)c1ccc(Oc2ccccc2)cc1`, the Potency was inconclusive: 15.8 µM [fluorescent, side channel, partial curve]. For `C(=N\Nc1nc(Nc2ccccc2)nc(N2CCOCC2)n1)/c1c[nH]c2ccccc12`, the Potency was inconclusive: 4.47 µM [quencher, side channel, full curve]. With `COc1ccc(/C=C2/SC(=S)N(CCCC(=O)Nc3cccc(O)c3)C2=O)cc1` the Potency was inconclusive: 25.1 µM [quencher, side channel, partial curve]. For `CC(=O)NS(=O)(=O)c1ccc(NC(=O)c2cc(-c3ccc(C)cc3)nc3ccccc23)cc1`, the Potency was inconclusive: 10 µM [quencher, side channel, partial curve]. `CCCn1c(=O)c(C(=O)NNC(=O)c2ccccc2Cl)c(O)c2ccccc21` was tested, and the Potency was inconclusive: 28.2 µM [quencher, side channel, single point]. For `C=CCn1c(SCC(=O)Nc2ccc(OC)cc2)nc2ccccc2c1=O`, the Potency was inconclusive: 35.5 µM [inhibitor, single point]. For `CCCCCC(=O)Nc1nc(C)c(-c2csc(Nc3ccc(Cl)cc3)n2)s1`, the Potency was inconclusive: 7.94 µM [quencher, side channel, full curve]. In the case of `Clc1ccc(SCCCCn2cncn2)cc1`, the Potency was inconclusive: 3.55 µM [inhibitor, single point]. `Nc1ccc2c(c1)C(=O)N(CCCC(=O)O)C2=O` was tested, and the Potency was inconclusive: 3.16 µM [inhibitor, single point]. In the case of `CS(=O)(=O)N1N=C(c2cccs2)CC1c1ccco1` (centres undefined), the Potency was inconclusive: 39.8 µM [quencher, side channel, single point].
